Test results: PubChem BioAssay AID1240 (Sanford-Burnham Center for Chemical Genomics, 2008)
Out of some 50,000 compounds screened, about 800 (1.6%) showed an effect of 50% or more. The list shows a part of the results.

Each molecule was assayed against Bcl-2-like protein 10 (Homo sapiens) (UniProt Q9HD36) (assay: Phenotype converters, Bcl-B/TR3 peptide binding displacement, primary biochemical FP (AID 1240;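 further: 0% = Bcl-B with tracer peptide and DMSO and 100% = tracer peptide lacking Bcl-B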)). Conditions: GST-Bcl-B / FITC-TR3 peptide fluorescence polarization; stronger effect = higher value; compound at 3.75 mg/L.
UniProt Q9HD36, sequence (Q9HD36 whole entry, looked up): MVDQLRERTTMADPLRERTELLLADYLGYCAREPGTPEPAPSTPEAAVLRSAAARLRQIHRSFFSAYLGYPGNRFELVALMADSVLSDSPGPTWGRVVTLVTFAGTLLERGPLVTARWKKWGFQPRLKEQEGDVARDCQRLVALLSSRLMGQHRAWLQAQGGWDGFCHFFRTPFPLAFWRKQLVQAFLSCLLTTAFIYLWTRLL

SMILES | displacement [%]
CS(=O)(=O)N(Cc1ccc(C(=O)NCc2ccco2)cc1)c1ccccc1 | 7.6
COC(=O)C1=C(C)N(c2ccccc2F)C(=O)/C1=C\c1ccc(F)cc1 | 2.3
CCOC(=O)C(=O)Nc1ccc(N(C)C)cc1 | 14
Cc1ccc(NC(=O)/C(=C\c2ccc3c(c2)OCO3)NC(=O)c2ccco2)cc1 | 3.2
O=C(Nc1ccc(Cl)c(Cl)c1)Nc1nnc(CSCc2ccccc2F)s1 | 0.3
CCCn1c(=N)n(CC(O)c2ccc(C)cc2)c2ccccc21 (stereo not drawn) | -8.9
Cc1ccc(N2C(=O)CC(NC3CCN(Cc4ccccc4)CC3)C2=O)cc1 (stereo not drawn) | 3.9
CCn1cc(C(=O)NN)c(=O)c2cc(F)c(N3CCCCCC3)cc21 | 31.4
C=CCN1C(=O)c2ccccc2C1(O)c1ccc(OC)cc1 (stereo not drawn) | 13
CC1SC(c2cccc(Cl)c2)NC1=O (stereo not drawn) | -2.3
O=C1NC(=O)/C(=C/c2ccccc2[N+](=O)[O-])S1 | 12.2
CCOc1ccccc1C(=O)Nc1cc(S(N)(=O)=O)ccc1C | -3.7
O=C(NCCCO)C(=O)NCc1ccc(Cl)cc1 | 17.3
Cc1cc(NC(=O)c2cccc(Br)c2)ccc1NC(=O)c1ccccc1 | 7.1
Cc1ccc(-c2cc(-c3cc(Cl)ccc3O)[nH]n2)cc1 | -4.3
COc1ccc(/C=C2\SC(=S)N(NC(=O)c3ccccc3[N+](=O)[O-])C2=O)cc1OC | 0.4
Cc1ccn2c(-c3csc(Nc4cccc(C(=O)O)c4)n3)c(C)nc2c1 | -1.1
COc1ccc(C2/C(=C(\O)c3ccc(C)cc3)C(=O)C(=O)N2CCCC(=O)O)cc1OC (stereo not drawn) | -4.6
N/C(=N\c1nc(C(F)(F)F)cc(=O)[nH]1)Nc1ccc(Cl)cc1 | -6.4
Cc1ccc(S(=O)(=O)Nc2ccc3c(c2)oc2ccccc23)cc1 | -13.8
COc1cc(/C=C2/C(=O)NN(c3ccc(C)cc3)C2=O)cc(Br)c1O | -8.4
O=[N+]([O-])c1cc(S(=O)(=O)N2CCN(c3ccccc3)CC2)ccc1Cl | 10.8

SMILES | displacement [%]
COc1ccc(/C=C/C(=O)Nc2sc3c(c2C#N)CC(C)(C)OC3)cc1OC | 41.9
Cc1cc(C)nc(/N=C(/N)Nc2ccc(OCCc3ccccc3)cc2)n1 | 10
Cn1c(/C=N/Nc2nc3ccccc3[nH]2)nc2ccccc21 | -7.4
O=[N+]([O-])c1cccc(CNC2CCCCC2)c1 | 5.2
COC(=O)CSc1nc2sc3c(c2c(=O)n1-c1ccccc1)CC(C)(C)OC3 | -8.4
O=C1CC(N2CCC(Cc3ccccc3)CC2)C(=O)N1c1cc(Cl)cc(Cl)c1 (stereo not drawn) | 1
N/C(=N\OC(=O)c1ccccc1Br)c1ccc(Cl)cc1 | 5.5
CCc1ccc(C2Nc3ccccc3NC3=C2C(=O)CC(c2ccccc2)C3)s1 (stereo not drawn) | 4.8
Cc1cccc(N=C2NC(=O)CS2)c1 | 7.3
O=C1S/C(=C\c2cccc(Cl)c2)C(=O)N1c1ccc(Cl)cc1 | -3.8
CC(=O)N1CCN(c2ccc([N+](=O)[O-])c(NC3CC3)c2)CC1 | 7.8
COc1ccc(/C=N\N2CCN(c3ccccc3)CC2)cc1 | -0.3
CCN1C(=O)/C(=C\c2ccccc2OS(=O)(=O)c2ccccc2[N+](=O)[O-])SC1=S | 10.9
O=C(Nc1ccccc1C(F)(F)F)c1ccc(OC2CSC2)cc1 | -7.4
COc1cccc(CNCc2ccccc2OC)c1 | 7.7
O=C(Nc1ccc(NC(=O)c2ccc(-c3cccc(Cl)c3)o2)cc1)c1ccccc1 | 21.4
COc1cc(C=O)c(Br)cc1OCc1ccc(Cl)cc1Cl | 5.6
C=CCOc1ccc(/C=C2\C(=O)NC(=O)N(c3ccccc3)C2=O)cc1Br | -16.6
CC(C)CN1C(=O)/C(=C/c2cn(-c3ccccc3)nc2-c2cccs2)SC1=S | 34.6
Cc1ccc(-c2csc(NC(=O)C3C4CCC(C4)C3C(=O)O)n2)cc1 (stereo not drawn) | 1.4
CCOC(=O)c1c(N)sc(C)c1-c1ccc(OCC)cc1 | 13.7
C=CCNC(=O)c1ccccc1C(=O)c1ccccc1 | 0.1

SMILES | displacement [%]
COc1ccc(/C=N/Nc2cc(N3CCOCC3)ncn2)c(OC)c1 | -8.4
CC(C)OC(=O)c1ccc(NC(=O)c2cncc(Br)c2)cc1 | 12.3
COc1ccccc1CNC(=O)COc1cc(C)c(Cl)c(C)c1 | 0.3
O=C(/C=C/c1ccc([N+](=O)[O-])cc1)N1CCN(CCN2C(=O)c3cccc4cccc(c34)C2=O)CC1 | -16
Cc1c(Cl)cccc1-n1ncnc1-c1cccc(Cl)c1 | -12.7
C=CCOC(=O)C1=C(C)N=C2SCCC(=O)N2C1c1ccc(OC)cc1 (stereo not drawn) | 8.3
COc1cc(C2CC3CC2C(C)C3(C)C)ccc1O (stereo not drawn) | 12.4
COc1cc(/C=C2\C(=O)NC(=O)N(c3ccc(F)cc3)C2=O)ccc1OCC(=O)O | -15.1
CC(NC(c1ccccc1)(c1ccccc1)c1ccccc1)C(=O)O (stereo not drawn) | 6.2
COc1cccc(C(=O)N2CCN(Cc3ccccn3)CC2)c1 | -10.9
O=C(NCCCn1ccnc1)c1ccc(C(=O)NCCCn2ccnc2)cc1 | -8
COc1c(Br)cc2c(cc(C)n2-c2ccccc2)c1OCC(O)CNC(C)C (stereo not drawn) | 1
COc1ccc(N2C(=O)C3C(C2=O)N2C(c4ccco4)C4C(=O)N(c5ccc(OC)cc5)C(=O)C4N2C3c2ccco2)cc1 (stereo not drawn) | -2.5
ON=C(c1nc2ccccc2[nH]1)c1nc2ccccc2[nH]1 | -20.8
COc1ccc([N+](=O)[O-])cc1NC(=O)CCc1ccccc1 | -2.3
CC(OCc1ccccc1)C(NC(=O)OC(C)(C)C)C(=O)NCCc1c[nH]c2ccccc12 (stereo not drawn) | 12.3
Cc1n[nH]c(=S)n(/N=C/c2cc(Cl)ccc2Cl)c1=O | 7.4
O=C1NC(=S)N(c2ccc(F)cc2)C(=O)/C1=C/c1ccc(-c2cccc(C(=O)O)c2)o1 | -66.4
CCOC(=O)C1=C(c2ccccc2)N=c2s/c(=C\c3ccc[nH]3)c(=O)n2C1c1cc(OC)ccc1OC (stereo not drawn) | -11
CCn1c2ccccc2c2cc(CNCCc3ccc(OC)c(OC)c3)ccc21 | 16.8
Cc1ccc2nc(-c3ccc(C)c(NC(=O)c4ccc5ccccc5c4)c3)oc2c1 | -11.3
COc1ccc(C2C(C(C)=O)=C(O)C(=O)N2CC2CCCO2)cc1 (stereo not drawn) | -2

SMILES | displacement [%]
Cc1ccc(N2C=NNC(=O)C2)cc1C | 10.5
Cc1cccc(CC2CC(=O)N(c3cccc(Cl)c3C)C2=O)c1 (stereo not drawn) | 6.6
O=C(Oc1ccc(/C=N/NC(=O)C(O)c2ccccc2)cc1)c1cccs1 (stereo not drawn) | 5.2
CCOP(=O)(OCC)C(NC(=O)Nc1ccc(Cl)cc1)C(N)=O (stereo not drawn) | 2.6
CC1=C(C(=O)Nc2ccc(C)cc2)C(c2cccc3ccccc23)NC(=S)N1 (stereo not drawn) | 2.2
COc1ccc(NC(=O)c2ccccc2Cl)cc1Cl | 12.4
CCc1cc(OCCOCCN(C)CCO)ccc1Cl | 4.8
c1cc2c(cc1C1OCC3(CO1)COC(c1ccc4c(c1)OCO4)OC3)OCO2 (stereo not drawn) | 8.2
NC(=O)c1ccccc1NS(=O)(=O)c1ccc(F)cc1 | -6.6
Cc1ccc(-c2cc(-c3ccccc3O)nc(NN)n2)cc1 | -18.6
CCOC(=O)/C(C(=O)Nc1cccs1)=C1\NC(C)(C)Cc2ccccc21 | 11.9
CCOC(=O)CSCCOc1ccc(C=O)cc1OC | -4.4
CCCC(=O)c1ccc(N2CCN(C(=O)OCC)CC2)c(F)c1 | -1.7
CC(=O)c1cccc(NC(=O)/C(=C\c2cccnc2)NC(=O)c2ccc(C)cc2)c1 | -7
CCOC(=O)/C(C#N)=C/c1ccc(O)cc1 | -4.7
COc1ccc(-c2cc(C(=O)Nc3ccccc3C(F)(F)F)c3ccccc3n2)cc1 | -6.1
O=C(CC(c1ccccc1)c1ccccc1)NCc1cccnc1 | 0.3
O=C1C2C(C(=O)N1/N=C/c1ccc(O)cc1)C1C=CC2C12CC2 (stereo not drawn) | 3.9
Cc1cc(/C=C2\C(=O)NC(=S)N(c3cccc(Cl)c3)C2=O)c(C)n1-c1cccnc1 | 18.3
COc1ccccc1/C=N/NC(=O)C(=O)N1CCCC1 | 5.5
CN(C)CC(=O)N1c2ccccc2CCc2ccc(NC(=O)c3ccccc3)cc21 | -7.3
O=C(O)c1ccc(-c2ccc(/C=C3\SC(=S)N(c4cccc(C(F)(F)F)c4)C3=O)o2)cc1 | -45.4

SMILES | displacement [%]
COc1ccc(S(=O)(=O)N2CCCCC2)cc1Br | 1.6
COc1ccc(C2=C/C(=C3\OC(=O)c4ccccc43)C(=O)O2)cc1 | -9.3
COC(=O)c1c(NC(=O)COc2ccc(Cl)cc2C)sc2c1CCC2 | 18.6
CCOc1ccc(Cc2c(O)nc(SC)n(-c3ccccc3)c2=O)cc1 | -2
NC1=C(Cl)C(=O)c2c(cccc2[N+](=O)[O-])C1=O | 4.5
CCC(=O)NC(c1ccc(OC)c(OC)c1)c1c(OC(C)=O)ccc2ccccc12 (stereo not drawn) | 10.6
COc1ccccc1NC(=O)CN(Cc1ccccc1)S(=O)(=O)c1ccccc1 | -8.7
NC(=O)c1cc(-c2ccc(Cl)cc2)nc2ccc(Br)cc12 | 6.9
COc1ccc(OCCNc2cc(Cl)ccc2[N+](=O)[O-])cc1 | 17.3
O=C(c1cccnc1)N1N=C(c2ccc([N+](=O)[O-])cc2)CC1(O)C(F)(F)F (stereo not drawn) | -8.5
O=C(NCCN1CCOCC1)c1cnn2c1NC(c1ccco1)CC2C(F)(F)F (stereo not drawn) | 6.2
Cc1ccc([N+](=O)[O-])cc1-c1ccc(/C=C2/C(=O)NC(=O)N(C)C2=O)o1 | -8
O=C(Oc1ccc(Cl)c(Cl)c1)c1ccc([N+](=O)[O-])cc1 | 0.1
CCc1ccc(CN2CCN(Cc3cc(OC)ccc3O)CC2)cc1 | 4.5
O=c1c2cc3c(=O)n(-c4nc5ccccc5s4)c(=O)c3cc2c(=O)n1-c1nc2ccccc2s1 | 13.1
O=C(COc1ccc2ccccc2c1)NCc1ccc(F)cc1 | 1.4
O=C(c1cccc(Cl)c1)N1CCN(c2ccc(F)cc2)CC1 | 10
COc1cc(C=C2C(=O)NC(=S)NC2=O)cc(Cl)c1OCCOc1ccccc1 | 4.8
CCc1ccc(NCCC(=O)c2ccc(Cl)c(Cl)c2)cc1 | 12.8
COc1ccccc1N1C(=O)NC(=O)C(=Cc2cc(OC)c(O)c([N+](=O)[O-])c2)C1=O | 6.8
